{"source": "PubChem BioAssay AID504832", "about": "(National Center for Advancing Translational Sciences (NCATS), 2011)", "note": "Hit rate of the full screen: of about 310,000 compounds, about 18,000 (5.8%) were called active. Inconclusive results, whose numbers are uncertain, are shown with a selection of clear calls. Calls come from the whole dose curve; as a rule, active = well fitted inhibition curve with a large enough effect; inconclusive = small, poorly fitted or top-dose-only effect, or another doubt; inactive = no such curve, though single readings can be large or run the other way. Potencies of inconclusive entries are left out as doubtful fits. Potency is the fitted concentration of half-maximal effect; tags give direction and shape of the fitted curve.", "data": [{"assay": "Primary qHTS for delayed death inhibitors of the malarial parasite plastid, 48 hour incubation", "settings": "P. falciparum luciferase growth in erythrocytes; series mostly up to 28.7 µM", "summary_of_the_method": "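Compounds are pin-transferred into medium, infected erythrocytes (2% hematocrit, 0.1% parasitemia final) are added, and plates sit one parasite generation at 37 C in 5% CO2. Detection reagent is then added and luminescence measured.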", "values": [{"compound": "COc1ccc(S(=O)(=O)N2CCCCC2)cc1NC(=O)CSc1ncccn1", "Potency": "inconclusive [inhibitor, partial curve]"}, {"compound": "CCOC(=O)c1cc2c(=O)n3cccc(C)c3nc2n(CC(C)C)c1=NC(=O)c1ccco1", "Potency": "inconclusive [inhibitor, single point]"}, {"compound": "O=C(Cc1cccc2ccccc12)NNC(=O)Nc1ccc(Cl)cc1", "Potency": "inconclusive [inhibitor, single point]"}, {"compound": "CC(=O)Nc1ccc(CN(C)CC2CCCN(CCc3cccc(C(F)(F)F)c3)C2)cc1", "note": "(stereo not given)", "Potency": "active: 4.15 µM"}, {"compound": "CN1C(C(=O)NCC2CC2)CC2Cn3c(nc4cc5ccccc5cc43)C21", "note": "(stereo not given)", "Potency": "inactive"}, {"compound": "CCc1nc(NCc2ccccc2)c(C#N)c2c1CCCC2", "Potency": "active: 10.4 µM"}, {"compound": "Oc1ccccc1-c1cc(-c2ccc(F)cc2)n[nH]1", "Potency": "inactive"}, {"compound": "OC(CN1CCOCC1)c1ccc(F)cc1", "note": "(stereo not given)", "Potency": "inactive"}, {"compound": "O=C(c1ccc(COc2ccc3ccccc3c2)o1)N1N=C(C(F)F)CC1(O)C(F)F", "note": "(stereo not given)", "Potency": "inactive"}, {"compound": "O=c1cnn(Cc2c(Cl)cccc2Cl)c2ccccc12", "Potency": "active: 13.1 µM"}, {"compound": "CN(C)S(=O)(=O)c1ccc2oc(SCC(=O)NCC(F)(F)F)nc2c1", "Potency": "inconclusive [inhibitor, partial curve, poor fit]"}, {"compound": "CC(C)CCOP(=O)(c1ccc(N(C)C)cc1)C(O)c1ccc(Cl)cc1Cl", "note": "(stereo not given)", "Potency": "active: 9.28 µM"}, {"compound": "Cc1ccc(C(=O)NCC(=O)Nc2cc(C)ccn2)cc1", "Potency": "inactive"}, {"compound": "Cc1ccc(-c2cc(C(=O)N3CCN(c4ccccc4O)CC3)c3ccccc3n2)cc1", "Potency": "active: 3.29 µM"}, {"compound": "Cc1ccc(S(=O)(=O)N2CCC(=O)N(C(COCc3ccc(Cl)cc3)C(C)C)CC2)cc1", "note": "(stereo not given)", "Potency": "inconclusive [inhibitor, partial curve]"}, {"compound": "CCOC(=O)CSc1nc2ccccc2c(=O)n1CC1CCC(C(=O)NCc2ccco2)CC1", "note": "(stereo not given)", "Potency": "inconclusive [inhibitor, partial curve]"}, {"compound": "CCN(CC)CCN(C(=O)c1ccc(S(=O)(=O)N2CCCC2)cc1)c1nc2cc(C)cc(C)c2s1", "Potency": "inconclusive [inhibitor, single point]"}, {"compound": "Cn1cc(S(=O)(=O)N2CCCC2)cc1C(=O)N1CCN(c2ccccc2)CC1", "Potency": "inconclusive [inhibitor, full curve, poor fit]"}, {"compound": "CCOc1ccc(S(=O)(=O)N2CCOCC2)cc1NC(=O)CSCc1ccc(C)cc1", "Potency": "active: 9.28 µM"}, {"compound": "CCOc1ccc(NC(=O)CN(C)C(=O)CSCc2c(C)noc2C)cc1OCC", "Potency": "inconclusive [inhibitor, single point]"}, {"compound": "O=C(O)CC(NC(=O)C(F)(F)F)c1ccc2c(c1)OCO2", "note": "(stereo not given)", "Potency": "inconclusive [inhibitor, partial curve, poor fit]"}, {"compound": "NNC(=O)c1sc2cc(C(F)(F)F)cnc2c1-c1cccs1", "Potency": "inconclusive [inhibitor, single point]"}, {"compound": "C[C@@H](CSc1ccccc1)CN1CC[C@H](C(C)(C)C)CCC1=O", "Potency": "inconclusive [inhibitor, full curve, poor fit]"}, {"compound": "Cc1ccc(-n2nc3c(=O)n(CCCC(=O)NCc4cccc(F)c4)nc(C)c3c2C)cc1", "Potency": "active: 10.4 µM"}, {"compound": "OCC1CCN(Cc2cn(Cc3ccccc3)nc2-c2cc3ccccc3o2)CC1", "Potency": "inconclusive [inhibitor, single point]"}, {"compound": "O=C(CNC(=S)N(CCCN1CCOCC1)Cc1cccs1)N1CCCCCC1", "Potency": "inconclusive [inhibitor, partial curve, poor fit]"}, {"compound": "C(=C/c1nccc2c1[nH]c1ccccc12)/c1ccc2c(c1)OCO2", "Potency": "active: 2.94 µM"}, {"compound": "CCC1(c2ccccc2)NC(=O)N(CC(=O)NCc2ccccc2OC)C1=O", "note": "(stereo not given)", "Potency": "inactive"}, {"compound": "Cc1ccc(-c2c(C(=O)N/N=C/c3cccc(Cl)c3)nnn2-c2nonc2N)cc1", "Potency": "active: 0.0522 µM"}, {"compound": "O=S(=O)(NCC(c1ccc2c(c1)OCO2)N1CCN(c2ccccc2)CC1)c1ccccc1", "note": "(stereo not given)", "Potency": "active: 7.38 µM"}, {"compound": "CSCC(C)N1CCC(n2nccc2NC(=O)c2ccccc2C)CC1", "note": "(stereo not given)", "Potency": "inactive"}, {"compound": "COc1cccc(-c2cc3nc4c(c(N5CCC6(CC5)OCCO6)n3n2)CCCC4)c1", "Potency": "active: 2.94 µM"}, {"compound": "COc1cc(NC(=O)C2CCCN2C(=O)OCc2ccccc2)cc(OC)c1", "note": "(stereo not given)", "Potency": "active: 7.38 µM"}, {"compound": "CCOc1ccc(NC(=O)c2ccc3c(c2)OCCO3)cc1S(=O)(=O)N(CC)CC", "Potency": "active: 13.1 µM"}, {"compound": "COc1ccc(CCNC(=O)CSC2=Nc3ccccc3C3=NC(C(C)C)C(=O)N23)cc1OC", "note": "(stereo not given)", "Potency": "inconclusive [inhibitor, partial curve, poor fit]"}, {"compound": "COc1ccc(NC(=O)c2ccccc2Oc2ccccc2)c(OC)c1", "Potency": "inactive"}, {"compound": "O=C(Nc1ccc(F)cc1)Nc1ccc2c(c1)OCO2", "Potency": "inconclusive [inhibitor, single point]"}, {"compound": "O=C(c1ccc2c(c1)ncn2C1CCCCCC1)N1CCC2(CC1)OCCO2", "Potency": "inconclusive [inhibitor, partial curve, poor fit]"}, {"compound": "O=C(c1ccc(CS(=O)(=O)c2ccc(Br)cc2)o1)N1CCN(c2ccc(F)cc2)CC1", "Potency": "inconclusive [inhibitor, partial curve, poor fit]"}, {"compound": "Cc1ccc(CC(=O)N(C)CC(=O)N(CC(C)C)c2c(N)n(CC(C)C)c(=O)[nH]c2=O)cc1C", "Potency": "inconclusive [inhibitor, single point]"}, {"compound": "COc1ccc(Cl)cc1NC(=O)CC1S/C(=N/N=C2CCCCCC2)NC1=O", "note": "(stereo not given)", "Potency": "inconclusive [inhibitor, single point]"}, {"compound": "CC(C)(O)C(=O)NN(Cc1ccccc1)c1ccccc1", "Potency": "inactive"}, {"compound": "CN(C(=O)COC(=O)c1ccc(-c2ccc(O)cc2)cc1)C1CCS(=O)(=O)C1", "note": "(stereo not given)", "Potency": "inactive"}, {"compound": "O=C(CNc1cccc([N+](=O)[O-])c1)N1CCN(S(=O)(=O)c2ccc(Cl)cc2)CC1", "Potency": "inconclusive [inhibitor, single point]"}, {"compound": "CCCC(=O)N1CCN(c2ccc(NC(=O)c3ccc4c(c3)OCCO4)cc2)CC1", "Potency": "inconclusive [inhibitor, partial curve]"}]}]}
